{
  "source": "the supplement of paper PMC9446081",
  "note": "Hit rate of the full screen: of about 39,000 compounds, about 220 (0.56%) showed activity. This is one part of the list.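 Also: static incubation at 37 °C against the wild-type strain, values averaged over two biological replicates.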",
  "data": [
    {"tested_on": "Escherichia coli K-12 BW25113", "experiment": "relative growth (OD600 normalised to plate interquartile mean) (fraction); higher = less growth inhibition, active = 0.2 or less", "settings": "50 µM; LB; incubation time: overnight (16-24 h)", "values": [
      {"molecule": "C[C@@H]1CN([C@@H](C)CO)C(=O)Cc2cc(NC(=O)Nc3ccc(F)cc3)ccc2O[C@H]1CN(C)CC1CCCCC1", "relative growth": "inactive: 0.977"},
      {"molecule": "CN1CCN(C(=O)C[C@@H]2CC[C@@H]3[C@H](COC[C@@H](O)CN3S(=O)(=O)c3cccc(Cl)c3)O2)CC1", "relative growth": "inactive: 1.03"},
      {"molecule": "CO[C@H]1CN(C)C(=O)c2cc(NC(=O)c3ccc(F)cc3)ccc2OC[C@@H](C)N(C(=O)CN(C)C)C[C@H]1C", "relative growth": "inactive: 0.996"},
      {"molecule": "C[C@@H]1CN([C@H](C)CO)C(=O)c2cccc(NC(=O)Nc3ccc(C(F)(F)F)cc3)c2O[C@@H]1CN(C)Cc1ccc(C(F)(F)F)cc1", "relative growth": "inactive: 1.05"},
      {"molecule": "O=c1ccn([C@@H]2O[C@H](CO)[C@@H](O)[C@H]2O)c(=O)[nH]1", "relative growth": "inactive: 1"},
      {"molecule": "C[C@@H]1CCCCO[C@@H](CN(C)S(=O)(=O)c2ccccc2)[C@H](C)CN([C@@H](C)CO)C(=O)c2cc(NS(C)(=O)=O)ccc2O1", "relative growth": "inactive: 0.894"},
      {"molecule": "CC[C@@H](C)N1C(=O)CC[C@H]1C(=O)O", "relative growth": "inactive: 1.01"},
      {"molecule": "C[C@@H]1CN([C@@H](C)CO)C(=O)c2cc(NS(=O)(=O)c3ccc(F)cc3)ccc2O[C@H]1CN(C)Cc1ccncc1", "relative growth": "inactive: 1.04"},
      {"molecule": "CCOC(=O)c1cc2c(c(-c3cccc(Br)c3)n1)[C@@H](CCO[Si](C)(C)C(C)(C)C)N(S(=O)(=O)C(C)(C)C)C2", "relative growth": "inactive: 1.05"},
      {"molecule": "C[C@@H]1CN([C@@H](C)CO)C(=O)c2cc(NS(=O)(=O)c3cccs3)ccc2O[C@@H](C)CCCCO[C@@H]1CN(C)C(=O)NC1CCCCC1", "relative growth": "inactive: 0.985"},
      {"molecule": "Cc1ccc(S(=O)(=O)Nc2ccc3c(c2)C(=O)N([C@@H](C)CO)C[C@@H](C)[C@@H](CN(C)Cc2ccc(C(=O)O)cc2)OCCCC[C@H](C)O3)cc1", "relative growth": "inactive: 0.993"},
      {"molecule": "C[C@@H]1CN([C@@H](C)CO)C(=O)c2cccc(NC(=O)C3CC3)c2O[C@@H]1CN(C)Cc1ccc(C(=O)O)cc1", "relative growth": "inactive: 0.992"},
      {"molecule": "Cc1noc(C)c1S(=O)(=O)Nc1cccc2c1O[C@H](CN(C)S(=O)(=O)c1ccc(F)cc1)[C@H](C)CN([C@H](C)CO)C2=O", "relative growth": "inactive: 1.01"},
      {"molecule": "O=C(C[C@H]1C=C[C@H](NC(=O)c2ccc3c(c2)OCO3)[C@H](CO)O1)NCc1ccc(Oc2ccccc2)cc1", "relative growth": "inactive: 0.996"},
      {"molecule": "Cc1ccc2[nH]c(C)cc2c1", "relative growth": "inactive: 0.972"},
      {"molecule": "O=C(O)Cn1cnc(C2CC2)cc1=O", "relative growth": "inactive: 0.91"},
      {"molecule": "CCS(=O)(=O)N1CC[C@]2(CC1)CN(Cc1ccc3c(c1)OCO3)[C@@H](CO)c1[nH]c3cc(ccc3c12)OC", "relative growth": "inactive: 0.995"},
      {"molecule": "Cc1nn(C)c(C)c1Nc1nnc(N)[nH]1", "relative growth": "inactive: 1"},
      {"molecule": "C[C@@H]1CN([C@@H](C)CO)C(=O)c2cc(NC(=O)Nc3ccc(C(F)(F)F)cc3)ccc2O[C@H]1CN(C)C(=O)Nc1ccc2c(c1)OCO2", "relative growth": "inactive: 0.999"},
      {"molecule": "Cc1ccc(S(=O)(=O)Nc2ccc3c(c2)C(=O)N([C@@H](C)CO)C[C@@H](C)[C@@H](CN(C)Cc2ccc4c(c2)OCO4)OCCCC[C@@H](C)O3)cc1", "relative growth": "inactive: 0.99"},
      {"molecule": "CCN(CC)C(=O)N1CCN(CCC#N)CC1", "relative growth": "inactive: 1.01"},
      {"molecule": "CC1(N)CCN(c2cccnc2NC(=O)c2nc(-c3ncccc3C(F)(F)F)cnc2N)CC1", "relative growth": "inactive: 1.02"},
      {"molecule": "C[C@@H]1CCCCO[C@H](CN(C)S(=O)(=O)c2ccccc2)[C@H](C)CN([C@@H](C)CO)C(=O)c2cc(NC(=O)NC3CCCCC3)ccc2O1", "relative growth": "inactive: 1.01"},
      {"molecule": "C[C@H]1CN([C@@H](C)CO)C(=O)c2cc(NC(=O)Cc3cn(C)c4ccccc34)ccc2O[C@H]1CN(C)Cc1ccc(C(=O)Nc2ccccc2N)cc1", "relative growth": "inactive: 0.942"},
      {"molecule": "C[C@H]1CN([C@@H](C)CO)C(=O)c2cc(NC(=O)Nc3ccc(F)cc3)ccc2O[C@@H]1CN(C)Cc1ccc(C(F)(F)F)cc1", "relative growth": "inactive: 0.943"},
      {"molecule": "O=C(C[C@H]1C[C@H]2c3cc(NC(=O)NC4CCCC4)ccc3O[C@H]2[C@H](CO)O1)NCc1ccc(Oc2ccccc2)cc1", "relative growth": "inactive: 1.04"},
      {"molecule": "C[C@@H]1CN([C@H](C)CO)S(=O)(=O)c2ccc(-c3cncnc3)cc2O[C@H]1CN(C)C(=O)c1cccc(F)c1", "relative growth": "inactive: 1.01"},
      {"molecule": "Cc1ccc(S(=O)(=O)Nc2ccc3c(c2)C(=O)N([C@@H](C)CO)C[C@@H](C)[C@@H](CN(C)Cc2ccc(Oc4ccccc4)cc2)O3)cc1", "relative growth": "inactive: 0.994"},
      {"molecule": "NC(Cc1cc(I)c(Oc2cc(I)c(O)c(I)c2)c(I)c1)C(=O)[O-].[Na+]", "note": "(centres undefined)", "relative growth": "inactive: 0.994"},
      {"molecule": "C[C@H]1CN([C@@H](C)CO)C(=O)c2cc(NC(=O)Nc3ccc(C(F)(F)F)cc3)ccc2O[C@@H]1CN(C)C(=O)Nc1ccc(C(F)(F)F)cc1", "relative growth": "inactive: 1.03"},
      {"molecule": "CCCC#Cc1cnc2c(c1)C(=O)N([C@H](C)CO)C[C@H](C)[C@@H](CN(C)S(=O)(=O)c1cccc(OC)c1)O2", "relative growth": "inactive: 1.02"},
      {"molecule": "Cc1nccn1CCc1nc(N)nc(N)n1", "relative growth": "inactive: 0.966"},
      {"molecule": "CN(Cc1ccc(/C=C/C(=O)Nc2ccc(-c3ccccc3)cc2N)cc1)CC12CC3CC(CC(C3)C1)C2", "relative growth": "inactive: 1.03"},
      {"molecule": "C[C@H]1CN([C@@H](C)CO)C(=O)c2cc(NC(=O)Nc3ccc(C(F)(F)F)cc3)ccc2O[C@@H]1CN(C)CC1CCCCC1", "relative growth": "inactive: 0.937"},
      {"molecule": "COc1ccc2c3c(n(c2c1)C)[C@H](CO)N(Cc1cc(cc(c1)OC)OC)C[C@]13CN(C1)C(=O)NC(C)C", "relative growth": "inactive: 0.999"},
      {"molecule": "COc1ccc(CN(C)C[C@H]2OCCCC[C@H](C)Oc3ccc(NS(=O)(=O)c4ccc(C)cc4)cc3C(=O)N([C@H](C)CO)C[C@@H]2C)cc1", "relative growth": "inactive: 1"},
      {"molecule": "C[C@@H]1CN([C@@H](C)CO)C(=O)Cc2cc(NS(=O)(=O)c3ccc(F)cc3)ccc2O[C@H]1CN(C)Cc1ccc(Oc2ccccc2)cc1", "relative growth": "inactive: 0.96"},
      {"molecule": "C[C@@H]1CCCCO[C@H](CN(C)C(=O)Nc2ccccc2)[C@H](C)CN([C@@H](C)CO)C(=O)c2cc(NS(=O)(=O)c3cccs3)ccc2O1", "relative growth": "inactive: 1.02"},
      {"molecule": "Cc1noc(C)c1NC(=O)Nc1ccc2c(c1)C(=O)N([C@@H](C)CO)C[C@H](C)[C@@H](CN(C)S(=O)(=O)c1ccc(F)cc1)OCCCC[C@@H](C)O2", "relative growth": "inactive: 0.988"}
    ]}
  ]
}
